# Results as given in PubChem BioAssay AID485344 (National Center for Advancing Translational Sciences (NCATS), 2010).
# Among all 340,000 compounds or so, about 6,900 (2%) were called active. No stated cut-off is given here; in the data, active means inhibition above about 30%; inactive means below that, where a call was filed. The entries are a selection whose mix differs from that of the whole data set. Entries without a call were filed so in the source.
# Molecular target: D(2) dopamine receptor (Homo sapiens) (UniProt P14416)
# Assay: HTS Assay for Allosteric Antagonists of the Human D2 Dopamine Receptor: Primary Screen for Antagonists; further: 0% is about no effect
# Settings: HEK293 TREx D2 cells, calcium flux, dopamine EC80; at 10 µM; stronger effect = higher value
# Summary of the method: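 Dopamine at EC80 is the agonist stimulus; test compounds precede it by 180 s. Calcium flux read kinetically in a force-coupled, inducible HEK293 T-REx D2 cell line.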
# UniProt P14416, sequence (P14416 whole entry, looked up): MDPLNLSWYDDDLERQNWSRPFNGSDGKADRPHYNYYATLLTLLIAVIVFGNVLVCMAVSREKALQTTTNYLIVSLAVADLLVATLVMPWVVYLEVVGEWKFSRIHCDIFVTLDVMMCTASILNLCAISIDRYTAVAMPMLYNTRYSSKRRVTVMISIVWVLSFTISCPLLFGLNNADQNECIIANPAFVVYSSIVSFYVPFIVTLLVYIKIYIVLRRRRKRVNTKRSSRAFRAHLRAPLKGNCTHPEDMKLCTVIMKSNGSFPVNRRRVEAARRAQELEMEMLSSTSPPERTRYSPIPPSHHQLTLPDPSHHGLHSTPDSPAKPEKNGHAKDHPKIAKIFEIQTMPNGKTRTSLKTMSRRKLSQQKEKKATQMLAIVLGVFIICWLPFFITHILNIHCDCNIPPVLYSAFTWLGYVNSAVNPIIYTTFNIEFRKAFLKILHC
row,SMILES,inhibition
1,COc1cc(OC)cc(C(=O)Nc2ccc3c(c2)N(C2CCCC2)C(=O)c2ccccc2S3)c1,-4.34%
2,O=C(NCc1ccccc1Cl)c1cc2ccccc2o1,13.2%
3,COc1cc(-c2nc3ncccn3c2Nc2ccc(C)cc2C)ccc1O,0.608%
4,COc1ccc(C(=O)Nc2nnc(S(=O)(=O)N(C)c3ccc(Cl)cc3)s2)cc1OC,-6.4%
5,Cc1ccccc1CNC(=O)C(=O)NCC(c1ccco1)S(=O)(=O)c1ccccc1 (stereo unspecified),10.1%
6,CCCS(=O)(=O)N1CCCC(C(=O)NCCCOC)C1 (stereo unspecified),10.9%
7,Cc1ccc(CCNC(=O)c2cn(C)c3ccc(S(=O)(=O)N4CCCCC4)cc3c2=O)cc1,8.29%
8,Cc1ccc2[nH]c(CSc3nnc(NC(=O)c4ccccc4C)s3)cc(=O)c2c1,13%
9,O=C(O)c1csc(-n2nc(-c3ccccc3)cc2C(F)(F)F)n1,active: 47.9%
10,CCC(=O)NCC(c1ccc2c(c1)OCO2)N1CCN(c2ccccc2)CC1 (stereo unspecified),25.5%
11,COc1ccc(N2CCN(C(=O)CCc3c(C)nc4cc(-c5ccc(Cl)cc5)nn4c3C)CC2)cc1,-14.4%
12,Cc1nc2ccccc2c(=O)n1-c1ccc(NC(=O)c2ccc([N+](=O)[O-])cc2)cc1,-25.1%
13,COc1ccc(-c2[nH]nc3nc(-c4cc(OC)c(OC)c(OC)c4)cc(C(=O)O)c23)cc1,-4.59%
14,CCOc1ccc(NCc2cccn2-c2nnc(N3CCC(C(=O)NCCc4ccc(OC)c(OC)c4)CC3)s2)cc1,-21.1%
15,CC1=C(c2ccc(C)c(C)c2)S(=O)(=O)N=C1N1CCC(C(=O)NCCc2ccco2)CC1,-3.82%
16,CS(=O)(=O)N1CCc2cc(C(=O)NCCc3ccccc3)ccc21,-6.15%
17,Cc1ccc(-c2cc(C(=O)N3CCN(S(=O)(=O)c4ccc(Br)cc4)CC3)[nH]n2)cc1C,2.7%
18,COC(=O)CS(=O)(=O)c1nc2ccccc2nc1N1CCCCC1,-23.6%
19,COc1ccccc1N1CCN(C(=O)c2cc3c(-c4ccc(Cl)cc4)nn(C)c3s2)CC1,active: 31%
20,CC(C)CCNC(=O)Nc1ccc2c(c1)N(C)C(=O)c1ccccc1S2,20.1%
21,COCCCNc1ncnc2onc(-c3ccc(F)cc3)c12,-23.4%
22,COCCCNC(=O)CN1C(=O)COc2ccc(S(=O)(=O)N3CCCC3)cc21,8.7%
23,Cc1n[nH]c(C)c1S(=O)(=O)N(CC(=O)NC(C)c1ccccc1)c1ccc(C(C)C)cc1 (stereo unspecified),3.13%
24,Cc1ccc(NC(=O)Cn2c(=O)c3cc(Cl)ccc3n3nncc23)cc1,-8.25%
25,COc1ccc(C(=O)NCCn2cc(SCC(=O)NCCc3ccc(OC)c(OC)c3)c3ccccc32)cc1,-0.384%
26,COc1cccc(NC(=O)Cn2cnc3c(nc4n3CCCCC4)c2=O)c1,6.61%
